# Measured values published in PubChem BioAssay AID1030 (National Center for Advancing Translational Sciences (NCATS), 2008).
# In all, about 220,000 compounds went through this assay and about 16,000 (7.3%) were called active. Inconclusive results, whose numbers are uncertain, are shown with a selection of clear calls. The call rests on the fitted dose curve; in most records, active means well fitted inhibition curve with a large enough effect (not every such curve was filed as active); inconclusive means small, poorly fitted or top-dose-only effect, or another doubt; inactive means no such curve, though single readings can be large or run the other way. Potencies of inconclusive entries are left out as doubtful fits.
# Target: Aldehyde dehydrogenase 1A1 (Homo sapiens) (UniProt P00352)
# Assay: qHTS Assay for Inhibitors of Aldehyde Dehydrogenase 1 (ALDH1A1)
# Conditions: Purified ALDH1A1, NADH fluorescence, propionaldehyde substrate; series mostly up to 75.3 µM
# Potency means the concentration at half of the fitted maximal effect; tags describe the fitted curve by direction and shape.
# Sequence of UniProt P00352 (P00352 whole entry, looked up): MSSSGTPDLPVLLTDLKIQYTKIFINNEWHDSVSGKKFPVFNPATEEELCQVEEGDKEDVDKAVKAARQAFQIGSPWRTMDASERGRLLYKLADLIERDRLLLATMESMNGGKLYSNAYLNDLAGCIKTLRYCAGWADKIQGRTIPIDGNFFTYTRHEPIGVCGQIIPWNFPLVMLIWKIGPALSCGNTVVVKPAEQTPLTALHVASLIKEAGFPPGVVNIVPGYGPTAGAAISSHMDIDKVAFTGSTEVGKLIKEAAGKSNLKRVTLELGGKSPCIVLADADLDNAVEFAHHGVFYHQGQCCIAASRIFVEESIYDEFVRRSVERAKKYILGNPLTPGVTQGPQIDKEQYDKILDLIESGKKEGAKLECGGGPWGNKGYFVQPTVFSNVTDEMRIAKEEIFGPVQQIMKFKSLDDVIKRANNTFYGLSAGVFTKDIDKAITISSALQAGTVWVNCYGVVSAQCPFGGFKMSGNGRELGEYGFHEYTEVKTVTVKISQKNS
row,SMILES,Potency
1,Cc1cc(C)n(-c2ccc(C(=O)OCC(=O)Nc3cc(Cl)ccc3[N+](=O)[O-])cc2)n1,inactive
2,CCOC(=O)c1c(C)n(C)c2ccc(O)c(CN(C)C)c12,"inconclusive [inhibitor, single point]"
3,O=C(/C=C/c1ccccc1Cl)Nc1ccc2c(c1)C(=O)NC2=O,"inconclusive [inhibitor, single point]"
4,COc1ccc(-c2cc(-c3cc(C)ccc3O)[nH]n2)cc1,inactive
5,COc1cccc2cc(C(C)OC(=O)Nc3ccc(C)cc3)oc12 (stereo not drawn),inactive
6,CCCC(=O)Nc1ccc(NC(=O)c2cccc(OC)c2)nc1,inactive
7,COc1ccc(N)c2c1C(=O)c1ccccc1C2=O,"inconclusive [inhibitor, single point]"
8,O=C(NNc1nc2ccc(Cl)cc2s1)c1cc(-c2cccs2)nc2ccccc12,inactive
9,COc1ccc(C(=O)NCc2cccnc2)cc1OC,active: 25.1 µM
10,CCOC(=O)C1=C(CSc2nc(-c3ccncc3)ccc2C#N)OC(N)=C(C#N)C1c1ccc(OC)cc1 (stereo not drawn),"inconclusive [inhibitor, partial curve]"
11,O=C(Nc1nc(-c2ccccc2)cs1)c1ccccc1NS(=O)(=O)c1ccc(F)cc1,"inconclusive [inhibitor, partial curve]"
12,O=C(N/N=C/c1ccc(O)cc1)c1ccc(NC(=O)c2ccccc2Br)cc1,"inconclusive [inhibitor, single point]"
13,O=C(CCn1nc(-c2ccc(Cl)cc2)c2ccccc2c1=O)Nc1cccnc1,inactive
14,COc1ccc(C(=O)N2CCC3(CCN(C)CC3)CC2)cc1,inactive
15,COC(=O)c1sccc1NC(=O)c1ccc(OC)cc1OC,"inconclusive [inhibitor, single point]"
16,Cc1ccccc1Nc1nc(N)nc(CSCc2c(C)noc2C)n1,active: 14.1 µM
17,COc1ccc(C(=O)NCC(O)COc2ccc(C(C)(C)C)cc2)cc1[N+](=O)[O-] (stereo not drawn),inactive
18,COc1ccc(OC)c(/C=N/c2oc(-c3ccco3)c(-c3ccco3)c2C#N)c1,"inconclusive [inhibitor, partial curve]"
19,O=C(N/C=C\c1ccccc1)NCc1ccc(Cl)cc1,"inconclusive [inhibitor, single point]"
20,CCOC(=O)C1CCCN(C(=O)COc2ccc(N(C)S(=O)(=O)c3ccc(C)cc3)cc2)C1 (stereo not drawn),inactive
21,COc1ccc(CNc2oc(-c3ccccc3)nc2C#N)cc1,"inconclusive [inhibitor, partial curve]"
22,O=C(O)c1ccc(NC(=S)Nc2ccccc2)cc1,"inconclusive [inhibitor, single point]"
23,CCCCN1C(=O)c2ccc(C(=O)Nc3c(N)n(CCCC)c(=O)n(C)c3=O)cc2C1=O,"inconclusive [inhibitor, partial curve]"
24,COc1ccc(N(C(=O)c2cccnc2)S(=O)(=O)c2ccc3c4c(cccc24)C(=O)N3C)cc1,"inconclusive [inhibitor, partial curve]"
25,COc1ccc(CCNC(=O)c2csc3c2CCCC3)cc1,active: 0.794 µM

row,SMILES,Potency
1,Cc1ccc(C)c(OCC(O)CN2CCC(CN3C(=O)c4cccc5cccc(c45)C3=O)CC2)c1 (stereo not drawn),"inconclusive [inhibitor, single point]"
2,CCCCn1c(=O)[nH]c(=O)c2c1nc(-c1ccc(OCCC)c(OCC)c1)n2CCOC,"inconclusive [inhibitor, partial curve]"
3,Nc1cccc(S(=O)(=O)O)c1,"inconclusive [inhibitor, single point]"
4,COc1ccc(OC)c(NC(=O)CN(Cc2ccc(Cl)cc2)S(C)(=O)=O)c1,inactive
5,CCCCCCCCC(=O)NCc1cc(OC)c(O)cc1I,"inconclusive [inhibitor, partial curve]"
6,O=C(COc1cccc(Cl)c1)Nc1ccc2c(c1)CCC2,"inconclusive [inhibitor, single point]"
7,Cc1ccc(/C=N/NC(=O)c2cccs2)o1,inactive
8,Cc1ccccc1S(=O)(=O)Cc1ccc(C(=O)NCCN2CCCCC2C)o1 (stereo not drawn),"inconclusive [inhibitor, single point]"
9,COc1ccc(OC)c(NC(=O)CSc2nnc(CNC(=O)c3ccco3)o2)c1,active: 10 µM
10,CCOC(=O)c1sc(NC(=O)Nc2ccc(Cl)cc2)nc1C,"inconclusive [inhibitor, single point]"
11,CC(=O)Nc1cccc(NS(=O)(=O)Cc2ccc(Cl)cc2)c1,active: 28.2 µM
12,Cc1ccc(-c2ccccc2NC(=O)C2C3C=CC(C3)C2C(=O)O)o1 (stereo not drawn),"inconclusive [inhibitor, single point]"
13,Cc1cc2nnc(SCC(=O)N3CCCCC3)n2c(N)n1,inactive
14,COc1cccc(C(=O)NC2CCSC2=O)c1 (stereo not drawn),"inconclusive [inhibitor, single point]"
15,Cc1ccc(S(=O)(=O)Nc2ccc3nc(N)sc3c2)cc1,"inconclusive [inhibitor, single point]"
16,CC(C)(C)C1CCC(=NNc2nc3ccccc3[nH]2)CC1 (stereo not drawn),"inconclusive [inhibitor, partial curve]"
17,O=C(c1ccco1)N1CCN(Cc2nc3ccc([N+](=O)[O-])cc3c(=O)n2-c2ccccc2F)CC1,"inconclusive [inhibitor, partial curve]"
18,Cc1ccc(Nc2nc(-c3sc(NC(=O)c4ccco4)nc3C)cs2)cc1,"inconclusive [inhibitor, single point]"
19,O=C(c1cc(-c2ccccc2)on1)N1CCCc2ccccc21,active: 14.1 µM
20,C#CCOC(=O)CCCC(=O)NCCCCCCCC,inactive
21,Cc1cccc(NC(=O)c2cc(NC(=O)c3ccccc3)ccc2N2CCCCC2)c1,"inconclusive [inhibitor, partial curve]"
22,COc1ccc(-c2ccccc2[C@H]2[C@@H]3C=CC[C@@H](C)[C@@H]3C(=O)N2Cc2ccccc2)cc1,inactive
23,CC(C)OCCCNC(=O)Cc1ccc(Br)cc1,inactive
24,CCOc1ccc(NC(=O)CCS(=O)(=O)c2ccc3c(c2)CCCN3C(C)=O)cc1,active: 18.9 µM
25,CCCCNC(=O)Nc1c(C(=O)OC)[nH]c2ccc(C)cc12,"inconclusive [inhibitor, full curve]"

row,SMILES,Potency
1,CC(NC(=O)/C(C#N)=C/c1cn[nH]c1-c1ccccc1)c1ccccc1 (stereo not drawn),active: 7.94 µM
2,COCCN(Cc1cc2cc3c(cc2n2nnnc12)OCO3)C(=O)c1ccccc1F,"inconclusive [inhibitor, partial curve]"
3,COCCNC(=O)Cn1nc(C)c([N+](=O)[O-])c1C,inactive
4,Cc1ccc(-c2nc3ncccc3o2)cc1NC(=O)COc1ccccc1,"inconclusive [inhibitor, single point]"
5,CC(/C=C1\SC(=S)N(CC(=O)N2CCN(c3ccccc3)CC2)C1=O)=C\c1ccccc1,"inconclusive [inhibitor, partial curve]"
6,COc1cccc(/C=C(/C(=O)OCC(=O)NC2CCCC(C)C2C)c2ccccc2)c1 (stereo not drawn),"inconclusive [inhibitor, single point]"
7,COc1ccc2nc(-c3cccc(N)c3)[nH]c2c1,inactive
8,Cc1ccccc1NC(=O)CNc1ccc(Cl)c(C(F)(F)F)c1,"inconclusive [inhibitor, single point]"
9,CNC(=O)C1C(=S)NC(N)=C(C#N)C1c1ccccc1 (stereo not drawn),active: 17.8 µM
10,COc1ccc(-n2c(O)c(/C=N/NS(=O)(=O)c3ccc(C)c([N+](=O)[O-])c3)c3ccccc3c2=O)cc1OC,"inconclusive [inhibitor, single point]"
11,COC(CNC(=O)c1cc(C(=O)c2c(-c3c(Cl)cccc3Cl)noc2C)c[nH]1)OC,active: 10 µM
12,COc1ccc(NC(C)c2cc(Cl)ccc2O)cc1 (stereo not drawn),active: 22.4 µM
13,COC(=O)c1c(NC(=O)COC(=O)c2ccc(NC(=O)CC#N)cc2)sc2c1CCCCC2,"inconclusive [inhibitor, single point]"
14,Cc1ccc(/C=C/C(=O)Nc2cc(S(N)(=O)=O)ccc2O)cc1,"inconclusive [inhibitor, partial curve]"
15,N#CC1(Cc2ccc([N+](=O)[O-])cc2)c2ccccc2C=CN1C(=O)c1ccccc1 (stereo not drawn),"inconclusive [inhibitor, full curve]"
16,COc1ccc(C2(CNC(=O)/C=C\c3ccco3)CCCC2)cc1OC,active: 3.55 µM
17,CCCc1c(C(=O)Nc2ccc(OC)cc2)cnn1-c1ccccc1,"inconclusive [inhibitor, full curve]"
18,COc1ccc(NC(=O)N2CCN(c3ccc([N+](=O)[O-])cc3)CC2)cc1OC,active: 8.91 µM
19,O=C(NCCO)/C(=C\c1ccc(Br)cc1)NC(=O)c1cccs1,inactive
20,COc1cccc(/C=C/C(=O)OCC(=O)Nc2ccc(Cl)c(S(=O)(=O)N(C)C)c2)c1,"inconclusive [inhibitor, partial curve]"
21,COc1ccc(CN2CCN(S(=O)(=O)c3ccccc3)CC2)cc1Br,"inconclusive [inhibitor, single point]"
22,CCOC(=O)c1c(C)[nH]c(C)c1C(=O)COC(=O)c1nc2nccc(C)n2n1,inactive
23,Cc1nc(Nc2ccc(Cl)cc2Cl)sc1C(=O)Nc1ccccc1,"inconclusive [inhibitor, single point]"
